# Measurements as given in the supplement of paper PMC8728848.
# Some of the results follow.
# Tests used:
# Assay in all cases: glycan array binding signal (z-score within array); higher = stronger binding
# Conditions in all cases: glycan notation: IUPAC condensed, linker removed
# [1] = target: Fuc(a1-2)Gal
# Outline: (§1)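 Glycan array binding is given as a within-array Z-score, which can be read as non-binding when negative. The arrays, 3228 of them, came from the Consortium for Functional Glycomics database and were retained only where the protein sequence was available. Z-scores were averaged across arrays of the same protein sequence at different concentrations or buffers and across linkers.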
# [2] = target: Fuc(a1-2)Gal(b1-3)GalNAc
# Outline: as §1
# [3] = target: Fuc(a1-2)Gal(b1-3)GalNAc(a1-3)[Fuc(a1-2)]Gal(b1-4)Glc
# Outline: as §1
# [4] = target: Fuc(a1-2)Gal(b1-3)GalNAc(a1-3)[Fuc(a1-2)]Gal(b1-4)GlcNAc
# Outline: as §1
# [5] = target: Fuc(a1-2)Gal(b1-3)GalNAc(b1-3)Gal
# Outline: as §1
# [6] = target: Fuc(a1-2)Gal(b1-3)GalNAc(b1-3)Gal(a1-4)Gal(b1-4)Glc
# Outline: as §1
# [7] = target: Fuc(a1-2)Gal(b1-3)GalNAc(b1-4)[Neu5Ac(a2-3)]Gal(b1-4)Glc
# Outline: as §1
# [8] = target: Fuc(a1-2)Gal(b1-3)GlcNAc
# Outline: as §1
# [9] = target: Fuc(a1-2)Gal(b1-3)GlcNAc(b1-2)Man(a1-3)[Fuc(a1-2)Gal(b1-3)GlcNAc(b1-2)Man(a1-6)]Man(b1-4)GlcNAc(b1-4)GlcNAc
# Outline: as §1
# [10] = target: Fuc(a1-2)Gal(b1-3)GlcNAc(b1-2)Man(a1-3)[Fuc(a1-2)Gal(b1-3)GlcNAc(b1-2)Man(a1-6)]Man(b1-4)GlcNAc(b1-4)[Fuc(a1-6)]GlcNAc
# Outline: as §1
# [11] = target: Fuc(a1-2)Gal(b1-3)GlcNAc(b1-3)Gal(b1-4)Glc
# Outline: as §1
# [12] = target: Fuc(a1-2)Gal(b1-3)GlcNAc(b1-3)GalNAc
# Outline: as §1
# [13] = target: Fuc(a1-2)Gal(b1-3)GlcNAc(b1-3)[Fuc(a1-3)[Gal(b1-4)]GlcNAc(b1-6)]Gal(b1-4)Glc
# Outline: as §1
# [14] = target: Fuc(a1-2)Gal(b1-3)GlcNAc(b1-3)[Gal(b1-4)GlcNAc(b1-6)]Gal(b1-4)Glc
# Outline: as §1
# [15] = target: Fuc(a1-2)Gal(b1-3)[Fuc(a1-4)]GlcNAc
# Outline: as §1
# [16] = target: Fuc(a1-2)Gal(b1-3)[Fuc(a1-4)]GlcNAc(b1-2)Man(a1-3)[Fuc(a1-2)Gal(b1-3)[Fuc(a1-4)]GlcNAc(b1-2)Man(a1-6)]Man(b1-4)GlcNAc(b1-4)GlcNAc
# Outline: as §1
# [17] = target: Fuc(a1-2)Gal(b1-3)[Fuc(a1-4)]GlcNAc(b1-3)[Fuc(a1-3)[Gal(b1-4)]GlcNAc(b1-6)]Gal(b1-4)Glc
# Outline: as §1
# [18] = target: Fuc(a1-2)Gal(b1-3)[Fuc(a1-4)]GlcNAc(b1-3)[Gal(b1-4)GlcNAc(b1-6)]Gal(b1-4)Glc
# Outline: as §1
# [19] = target: Fuc(a1-2)Gal(b1-4)Glc
# Outline: as §1
# [20] = target: Fuc(a1-2)Gal(b1-4)Glc6S
# Outline: as §1
# [21] = target: Fuc(a1-2)Gal(b1-4)GlcNAc
# Outline: as §1
# [22] = target: Fuc(a1-2)Gal(b1-4)GlcNAc(b1-2)Man(a1-3)[Fuc(a1-2)Gal(b1-4)GlcNAc(b1-2)Man(a1-6)]Man(b1-4)GlcNAc(b1-4)GlcNAc
# Outline: as §1
# [23] = target: Fuc(a1-2)Gal(b1-4)GlcNAc(b1-2)Man(a1-3)[Fuc(a1-2)Gal(b1-4)GlcNAc(b1-2)Man(a1-6)]Man(b1-4)GlcNAc(b1-4)[Fuc(a1-6)]GlcNAc
# Outline: as §1
# [24] = target: Fuc(a1-2)Gal(b1-4)GlcNAc(b1-2)[Fuc(a1-2)Gal(b1-4)GlcNAc(b1-4)]Man(a1-3)[Fuc(a1-2)Gal(b1-4)GlcNAc(b1-2)Man(a1-6)]Man(b1-4)GlcNAc(b1-4)GlcNAc
# Outline: as §1
# [25] = target: Fuc(a1-2)Gal(b1-4)GlcNAc(b1-3)Gal(b1-4)GlcNAc
# Outline: as §1
# [26] = target: Fuc(a1-2)Gal(b1-4)GlcNAc(b1-3)Gal(b1-4)GlcNAc(b1-3)Gal(b1-4)GlcNAc
# Outline: as §1
# [27] = target: Fuc(a1-2)Gal(b1-4)GlcNAc(b1-3)GalNAc
# Outline: as §1
# [28] = target: Fuc(a1-2)Gal(b1-4)GlcNAc6S
# Outline: as §1
# [29] = target: Fuc(a1-2)Gal(b1-4)[Fuc(a1-3)]GlcNAc
# Outline: as §1
# [30] = target: Fuc(a1-2)Gal(b1-4)[Fuc(a1-3)]GlcNAc(b1-2)Man(a1-3)[Fuc(a1-2)Gal(b1-4)[Fuc(a1-3)]GlcNAc(b1-2)Man(a1-6)]Man(b1-4)GlcNAc(b1-4)GlcNAc
# Outline: as §1
# [31] = target: Fuc(a1-2)Gal(b1-4)[Fuc(a1-3)]GlcNAc(b1-2)[Fuc(a1-2)Gal(b1-4)[Fuc(a1-3)]GlcNAc(b1-4)]Man(a1-3)[Fuc(a1-2)Gal(b1-4)[Fuc(a1-3)]GlcNAc(b1-2)Man(a1-6)]Man(b1-4)GlcNAc(b1-4)GlcNAc
# Outline: as §1
# [32] = target: Fuc(a1-2)Gal(b1-4)[Fuc(a1-3)]GlcNAc(b1-3)Gal(b1-4)[Fuc(a1-3)]GlcNAc
# Outline: as §1
# [33] = target: Fuc(a1-2)Gal(b1-4)[Fuc(a1-3)]GlcNAc(b1-3)Gal(b1-4)[Fuc(a1-3)]GlcNAc(b1-3)Gal(b1-4)[Fuc(a1-3)]GlcNAc
# Outline: as §1
# [34] = target: Fuc(a1-2)Gal(b1-4)[Fuc(a1-3)]GlcNAc(b1-3)GalNAc
# Outline: as §1
# [35] = target: Fuc(a1-2)Gal6S(b1-4)Glc
# Outline: as §1
# [36] = target: Fuc(a1-2)Gal6S(b1-4)Glc6S
# Outline: as §1
# [37] = target: Fuc(a1-2)Gal6S(b1-4)GlcNAc
# Outline: as §1
# [38] = target: Fuc(a1-2)[Gal(a1-3)]Gal
# Outline: as §1
# [39] = target: Fuc(a1-2)[Gal(a1-3)]Gal(b1-3)GlcNAc
# Outline: as §1
# [40] = target: Fuc(a1-2)[Gal(a1-3)]Gal(b1-3)GlcNAc(b1-2)Man(a1-3)[Fuc(a1-2)[Gal(a1-3)]Gal(b1-3)GlcNAc(b1-2)Man(a1-6)]Man(b1-4)GlcNAc(b1-4)GlcNAc
# Outline: as §1
# [41] = target: Fuc(a1-2)[Gal(a1-3)]Gal(b1-3)GlcNAc(b1-3)GalNAc
# Outline: as §1
# [42] = target: Fuc(a1-2)[Gal(a1-3)]Gal(b1-4)Glc
# Outline: as §1
# [43] = target: Fuc(a1-2)[Gal(a1-3)]Gal(b1-4)GlcNAc
# Outline: as §1
# [44] = target: Fuc(a1-2)[Gal(a1-3)]Gal(b1-4)GlcNAc(b1-2)Man(a1-3)[Fuc(a1-2)[Gal(a1-3)]Gal(b1-4)GlcNAc(b1-2)Man(a1-6)]Man(b1-4)GlcNAc(b1-4)GlcNAc
# Outline: as §1
# [45] = target: Fuc(a1-2)[Gal(a1-3)]Gal(b1-4)GlcNAc(b1-2)Man(a1-3)[Fuc(a1-2)[Gal(a1-3)]Gal(b1-4)GlcNAc(b1-2)Man(a1-6)]Man(b1-4)GlcNAc(b1-4)[Fuc(a1-6)]GlcNAc
# Outline: as §1
# [46] = target: Fuc(a1-2)[Gal(a1-3)]Gal(b1-4)GlcNAc(b1-3)GalNAc
# Outline: as §1
# [47] = target: Fuc(a1-2)[Gal(a1-3)]Gal(b1-4)[Fuc(a1-3)]Glc
# Outline: as §1
# [48] = target: Fuc(a1-2)[Gal(a1-3)]Gal(b1-4)[Fuc(a1-3)]GlcNAc
# Outline: as §1
# [49] = target: Fuc(a1-2)[Gal(a1-3)]Gal(b1-4)[Fuc(a1-3)]GlcNAc(b1-3)GalNAc
# Outline: as §1
# [50] = target: Fuc(a1-2)[Gal(a1-4)]Gal(b1-4)GlcNAc
# Outline: as §1
# [51] = target: Fuc(a1-2)[GalNAc(a1-3)]Gal
# Outline: as §1
# [52] = target: Fuc(a1-2)[GalNAc(a1-3)]Gal(b1-3)GalNAc(a1-3)[Fuc(a1-2)]Gal(b1-4)GlcNAc
# Outline: as §1
# [53] = target: Fuc(a1-2)[GalNAc(a1-3)]Gal(b1-3)GlcNAc
# Outline: as §1
# [54] = target: Fuc(a1-2)[GalNAc(a1-3)]Gal(b1-3)GlcNAc(b1-2)Man(a1-3)[Fuc(a1-2)[GalNAc(a1-3)]Gal(b1-3)GlcNAc(b1-2)Man(a1-6)]Man(b1-4)GlcNAc(b1-4)GlcNAc
# Outline: as §1
# [55] = target: Fuc(a1-2)[GalNAc(a1-3)]Gal(b1-3)GlcNAc(b1-3)GalNAc
# Outline: as §1
# [56] = target: Fuc(a1-2)[GalNAc(a1-3)]Gal(b1-4)Glc
# Outline: as §1
# [57] = target: Fuc(a1-2)[GalNAc(a1-3)]Gal(b1-4)GlcNAc
# Outline: as §1
# [58] = target: Fuc(a1-2)[GalNAc(a1-3)]Gal(b1-4)GlcNAc(b1-2)Man(a1-3)[Fuc(a1-2)[GalNAc(a1-3)]Gal(b1-4)GlcNAc(b1-2)Man(a1-6)]Man(b1-4)GlcNAc(b1-4)GlcNAc
# Outline: as §1
# [59] = target: Fuc(a1-2)[GalNAc(a1-3)]Gal(b1-4)GlcNAc(b1-3)Gal(b1-4)GlcNAc
# Outline: as §1
# [60] = target: Fuc(a1-2)[GalNAc(a1-3)]Gal(b1-4)GlcNAc(b1-3)Gal(b1-4)GlcNAc(b1-3)Gal(b1-4)GlcNAc
# Outline: as §1
binder,measurement,setting,value
"PILRa (Homo sapiens), Q9UKJ1 (protein) MGRPLLLPLLPLLLPPAFLQPSGSTGSGPSYLYGVTQPKHLSASMGGSVEIPFSFYYPWELATAPDVRISWRRGHFHRQSFYSTRPPSIHKDYVNRLFLNWTEGQKSGFLRISNLQKQDQSVYFCRVELDTRSSGRQQWQSIEGTKLSITQAVTTTTQRPSSMTTTWRLSSTTTTTGLRVTQGKRRSDSWHISLETAVGVAVAVTVLGIMILGLICLLRWRRRKGQQRTKATTPAREPFQNTEEPYENIRNEGQNTDPKLNPKDDGIVYASLALSSSTSPRAPPSHRPLKSPQNETLYSVLKA",glycan array binding signal (z-score),[1],-0.086
same,glycan array binding signal (z-score),[2],-0.147
same,glycan array binding signal (z-score),[3],0.021
same,glycan array binding signal (z-score),[4],-0.202
same,glycan array binding signal (z-score),[5],0.215
same,glycan array binding signal (z-score),[6],-0.306
same,glycan array binding signal (z-score),[7],-0.102
same,glycan array binding signal (z-score),[8],-0.012
same,glycan array binding signal (z-score),[9],-0.191
same,glycan array binding signal (z-score),[10],0.026
same,glycan array binding signal (z-score),[11],-0.181
same,glycan array binding signal (z-score),[12],-0.519
same,glycan array binding signal (z-score),[13],-0.12
same,glycan array binding signal (z-score),[14],-0.003
same,glycan array binding signal (z-score),[15],-0.278
same,glycan array binding signal (z-score),[16],4.38
same,glycan array binding signal (z-score),[17],0.056
same,glycan array binding signal (z-score),[18],-0.237
same,glycan array binding signal (z-score),[19],-0.217
same,glycan array binding signal (z-score),[20],-0.229
same,glycan array binding signal (z-score),[21],-0.263
same,glycan array binding signal (z-score),[22],-0.087
same,glycan array binding signal (z-score),[23],-0.374
same,glycan array binding signal (z-score),[24],-0.21
same,glycan array binding signal (z-score),[25],-0.365
same,glycan array binding signal (z-score),[26],-0.355
same,glycan array binding signal (z-score),[27],-0.184
same,glycan array binding signal (z-score),[28],-0.228
same,glycan array binding signal (z-score),[29],-0.165
same,glycan array binding signal (z-score),[30],2.16
same,glycan array binding signal (z-score),[31],4.02
same,glycan array binding signal (z-score),[32],1.78
same,glycan array binding signal (z-score),[33],-0.189
same,glycan array binding signal (z-score),[34],5.45
same,glycan array binding signal (z-score),[35],-0.131
same,glycan array binding signal (z-score),[36],0.337
same,glycan array binding signal (z-score),[37],-0.127
same,glycan array binding signal (z-score),[38],0.018
same,glycan array binding signal (z-score),[39],-0.18
same,glycan array binding signal (z-score),[40],0.065
same,glycan array binding signal (z-score),[41],0.023
same,glycan array binding signal (z-score),[42],-0.132
same,glycan array binding signal (z-score),[43],-0.277
same,glycan array binding signal (z-score),[44],-0.305
same,glycan array binding signal (z-score),[45],-0.14
same,glycan array binding signal (z-score),[46],-0.193
same,glycan array binding signal (z-score),[47],-0.182
same,glycan array binding signal (z-score),[48],1.53
same,glycan array binding signal (z-score),[49],3.41
same,glycan array binding signal (z-score),[50],-0.034
same,glycan array binding signal (z-score),[51],-0.162
same,glycan array binding signal (z-score),[52],-0.142
same,glycan array binding signal (z-score),[53],-0.308
same,glycan array binding signal (z-score),[54],-0.297
same,glycan array binding signal (z-score),[55],4.4
same,glycan array binding signal (z-score),[56],-0.343
same,glycan array binding signal (z-score),[57],-0.229
same,glycan array binding signal (z-score),[58],-0.219
same,glycan array binding signal (z-score),[59],-0.264
same,glycan array binding signal (z-score),[60],0.29
